# Measurements: PubChem BioAssay AID1468 (National Center for Advancing Translational Sciences (NCATS), 2008)
# In all, about 280,000 compounds went through this assay and about 1,100 (0.39%) were called active. Inconclusive means that the source gave no clear call. Such entries were picked first, then a sample of the others. Calls follow the shape of the dose curve; as a rule, active = well fitted inhibition curve with a large enough effect; inconclusive = small, poorly fitted or top-dose-only effect, or effect the other way; inactive = flat fitted curve, though single readings scatter. No potency is given beside an inconclusive call; the fits are too rough.
# Target: Microtubule-associated protein tau (Homo sapiens) (UniProt P10636)
# Assay: qHTS for Inhibitors of Tau Fibril Formation, Fluorescence Polarization; also: nearly all actives have a fitted effect of over 55% in size
# Conditions: K18 P301L tau heparin fibrillization, Alexa594 FP, 6 h; series mostly up to 57.7 µM
# Procedure, shortened: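 FP of Alexa 594-tau after heparin (20 uM) induction. Substrate: human K18 P301L, 15 uM unlabeled, 0.24 uM labeled. Buffer 100 mM sodium acetate pH 7. 6 hr, 37 C.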
# Potency is read from the fitted curve at half-maximal effect; tags tell the direction and shape of the fitted curve.
# Sequence of UniProt P10636 (P10636 whole entry, looked up): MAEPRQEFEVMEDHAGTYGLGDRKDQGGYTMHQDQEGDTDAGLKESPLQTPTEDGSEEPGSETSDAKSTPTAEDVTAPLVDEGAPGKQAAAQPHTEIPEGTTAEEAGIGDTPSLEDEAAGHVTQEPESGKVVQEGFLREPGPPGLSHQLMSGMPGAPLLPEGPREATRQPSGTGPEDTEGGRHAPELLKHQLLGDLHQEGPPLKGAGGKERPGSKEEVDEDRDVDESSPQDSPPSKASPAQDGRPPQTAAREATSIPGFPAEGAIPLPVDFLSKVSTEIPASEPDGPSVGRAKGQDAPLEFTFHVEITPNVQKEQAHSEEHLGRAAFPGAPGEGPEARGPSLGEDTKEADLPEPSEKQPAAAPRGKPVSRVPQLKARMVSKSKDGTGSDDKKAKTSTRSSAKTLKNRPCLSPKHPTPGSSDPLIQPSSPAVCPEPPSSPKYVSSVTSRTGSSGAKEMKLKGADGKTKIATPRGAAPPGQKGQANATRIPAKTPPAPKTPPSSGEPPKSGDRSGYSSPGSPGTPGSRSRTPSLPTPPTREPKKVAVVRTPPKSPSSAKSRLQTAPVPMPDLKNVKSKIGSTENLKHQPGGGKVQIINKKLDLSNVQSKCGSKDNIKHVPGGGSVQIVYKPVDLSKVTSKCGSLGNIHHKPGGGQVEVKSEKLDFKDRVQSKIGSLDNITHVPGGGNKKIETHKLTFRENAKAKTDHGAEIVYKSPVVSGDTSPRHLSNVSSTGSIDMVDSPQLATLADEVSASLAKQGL
row,Compound,Potency
1,NC(=O)CC(NC(=O)Cc1cccc2ccccc12)c1ccc(NCc2ccc(F)c(F)c2)c([N+](=O)[O-])c1 (centres undefined),"inconclusive [inhibitor, single point]"
2,Cc1ccc(NC(=O)/C=C/c2ccccc2)c(Br)c1,"inconclusive [inhibitor, partial curve]"
3,COc1cc2[nH]c(=S)n(N(C(C)=O)C(C)=O)c(=O)c2cc1OC,inactive
4,Cn1c(N)c(C(=O)COC(=O)c2cc(-c3ccccc3)nc3ccccc23)c(=O)n(C)c1=O,"inconclusive [inhibitor, full curve]"
5,CCN(CC)S(=O)(=O)c1ccc(C(=O)Nc2nnc(NC(=S)Nc3ccccc3)s2)cc1,"inconclusive [inhibitor, partial curve, poor fit]"
6,O=[N+]([O-])c1cccc(S(=O)(=O)NCCCN2CCOCC2)c1,inactive
7,O=C(NCCO)c1ccc2c3n(nc2c1)-c1ccccc1CO3,inactive
8,O=C(Cn1c(=O)n(Cc2ccc3c(c2)OCO3)c(=O)c2oc3ccccc3c21)Nc1ccccc1,"inconclusive [inhibitor, full curve, poor fit]"
9,N#CC1=C(N)NC(=S)C(C(N)=O)C1c1ccc([N+](=O)[O-])cc1 (centres undefined),"inconclusive [inhibitor, single point]"
10,CCn1c(C(=O)NCc2cccc(Br)c2)cc2oc3ccccc3c21,"inconclusive [inhibitor, full curve, poor fit]"
11,COC(=O)c1ccc(NC(=O)c2c(NCc3ccc(C)o3)sc3c2CCCC3)cc1,inactive
12,COc1ccc(C(=O)N/N=C/C(Br)=C/c2ccccc2)cc1,"inconclusive [inhibitor, partial curve, poor fit]"
13,COc1ccc(-c2nn(C)c3sc(C(=O)Nc4cccc(F)c4)cc23)cc1OC,active: 12.6 µM
14,Cc1ccccc1OCC(=O)OCc1cc(=O)n2ccsc2n1,"inconclusive [inhibitor, single point]"
15,Brc1ccc(OCCCN2CCOCC2)cc1,inactive
16,Cc1cccc(NC(=S)NC(NC(=O)OCc2ccccc2)C(Cl)(Cl)Cl)c1 (centres undefined),"inconclusive [inhibitor, single point]"
17,CC(=O)NS(=O)(=O)c1ccc(NC(=O)COc2ccc(C(=O)c3ccccc3)cc2)cc1,inactive
18,Nc1ccn([C@H]2CC[C@@H](CO)O2)c(=O)n1,"inconclusive [inhibitor, single point]"
19,Cc1cc(C)cc(NC(=O)c2cc(S(=O)(=O)N3CCCCCC3)cn2C)c1,inactive
20,Cc1cc2oc(=O)cc(-c3ccccc3)c2c(C)c1-c1ccc(O)cc1,"inconclusive [inhibitor, partial curve]"
21,Cc1ccc(C2Nc3ccccc3-n3c(-c4ccccc4)c4c(=O)n(C)c(=O)n(C)c4c32)o1 (centres undefined),"inconclusive [inhibitor, partial curve]"
22,CCOc1c2ccc(C(=O)NCc3ccc(C(F)(F)F)cc3C(F)(F)F)cc2nn1C,"inconclusive [activator, single point]"

row,Compound,Potency
1,Cc1cccc(C(=O)NNC2=C(C(=O)C(F)(F)F)CCC2)c1O,"inconclusive [activator, partial curve, poor fit]"
2,O=C(CC1N=C2c3ccccc3N=C(SCc3ccccc3Cl)N2C1=O)NCc1ccco1 (centres undefined),"inconclusive [inhibitor, single point]"
3,COc1ccccc1OCCn1cc(C(=O)c2cccs2)c2ccccc21,"inconclusive [inhibitor, partial curve]"
4,O=C(c1cc2c(=O)oc3ccccc3c2s1)N1CCN(c2cccc(Cl)c2)CC1,inactive
5,O=C1c2ccc(O)c(O)c2C(=O)c2c(O)ccc(O)c21,active: 12.6 µM
6,CCOc1ccc(CNC(=O)c2cc3oc4ccccc4c3n2C)cc1,"inconclusive [inhibitor, single point]"
7,Cc1ccc(OCc2ccc(C(=O)NCc3cccnc3)cc2)cc1C,inactive
8,Cc1nc2nc[nH]c2cc1Br,inactive
9,CC(C)CNC(=O)CSc1ccc(Cl)cc1,inactive
10,Cc1ccccc1OCc1ccc(-c2nc(C#N)c(NCCCN(C)C)o2)o1,"inconclusive [activator, partial curve, poor fit]"
11,CCOC(=O)C1CCN(C(c2ccccc2OC)c2c(O)cc(C)n(CCOC)c2=O)CC1 (centres undefined),"inconclusive [inhibitor, single point]"
12,Cc1cc(C(F)(F)F)n2nc(C(=O)O)c(Cl)c2n1,inactive
13,CCCc1cc(-n2cnc3ccccc32)n2c(nc3ccccc32)c1C#N,"inconclusive [activator, single point]"
14,O=S(=O)(Nc1c(S(=O)(=O)c2ccccc2)c2nc3ccccc3nc2n1C1CCCCC1)c1ccccc1,"inconclusive [inhibitor, single point]"
15,O=C(CSc1nc(-c2ccccc2Cl)ns1)Nc1ccc2c(c1)OCO2,"inconclusive [inhibitor, partial curve, poor fit]"
16,CC(=O)c1ccc(NC(=O)Cn2cc(S(=O)(=O)Cc3cccc(Cl)c3)c3ccccc32)cc1,"inconclusive [inhibitor, partial curve]"
17,CC(=O)c1cc(NC(=O)c2ccc(Cl)cc2)c(=O)oc1/C=C/N(C)C,"inconclusive [inhibitor, single point]"
18,CCc1ccc(C(=O)c2cn(CC(=O)Nc3ccc4c(c3)OCO4)c3cc(OC)c(OC)cc3c2=O)cc1,"inconclusive [inhibitor, single point]"
19,O=S(=O)(c1ccc(NC(=S)NCc2ccncc2)cc1)N1CCCCC1,"inconclusive [inhibitor, single point]"
20,COc1ccc(CNC(=O)CCn2cccn2)cc1,inactive
21,O=C1CC(c2cc(Br)ccc2F)c2cc3c(cc2N1)CCC3 (centres undefined),inactive
22,O=C(Nc1cccnc1)c1ccc(-c2cc(Cl)ccc2Cl)o1,"inconclusive [inhibitor, partial curve, poor fit]"
